# According to the supplement of paper PMC8728848:
# The other results are listed elsewhere or left out.
# B1: SP16665A-bot-344-23-344 (Bacteroides ovatus) (protein)
# chain: SDNEFPDFDYQTVYFANQYGLRTIELGESEFVDNTLDNQHKMVIKAAWGGGYTNRNNVVINFKVDESLCDNLYFKDTDQPLVPMPASYYTLASDRIAIPKGQIMAGVEVQLTDDFFADEKSISENYVIPLLMTNVQGADSILQGKPVVENPVLTNAGDWSILPQNFVLYAVKYVNPWHGEYLRRGIDHATVAGTSKDIIRHEQFVENDEVVNISTKSMKDNLLTLKTKDESGKDISYTVRLSFAEDGSCTVHSGSQNVVVSGSGKFVSKGEKNSLGGKDRNAIYLDYTVNLTDNNIQLATKDTLVLRTRNVYGGKSLEVVRK
# Experiments:
# Experiment in all cases: glycan array binding signal (z-score within array); higher = stronger binding
# Settings in all cases: glycan notation: IUPAC condensed, linker removed
# [1] = biological target: Gal(a1-3)Gal(b1-4)GlcNAc(b1-2)Man
# In short: (§1)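 From the Consortium for Functional Glycomics database, 3228 arrays were curated, keeping only those whose protein sequence was available. Binding is given as a within-array Z-score averaged across arrays sharing a protein sequence and across linkers. Negative Z-scores can be read as non-binding.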
# [2] = biological target: Gal(a1-3)Gal(b1-4)GlcNAc(b1-2)Man(a1-3)[Gal(a1-3)Gal(b1-4)GlcNAc(b1-2)Man(a1-6)]Man(b1-4)GlcNAc(b1-4)GlcNAc
# In short: as §1
# [3] = biological target: Gal(a1-3)Gal(b1-4)GlcNAc(b1-3)GalNAc
# In short: as §1
# [4] = biological target: Gal(a1-3)Gal(b1-4)GlcNAc(b1-6)GalNAc
# In short: as §1
# [5] = biological target: Gal(a1-3)Gal(b1-4)[Fuc(a1-3)]GlcNAc
# In short: as §1
# [6] = biological target: Gal(a1-3)Gal(b1-4)[Fuc(a1-3)]GlcNAc(b1-2)Man(a1-3)[Gal(a1-3)Gal(b1-4)[Fuc(a1-3)]GlcNAc(b1-2)Man(a1-6)]Man(b1-4)GlcNAc(b1-4)GlcNAc
# In short: as §1
# Gal(a1-3)GalNAc = biological target: Gal(a1-3)GalNAc
# In short: as §1
# [7] = biological target: Gal(a1-3)[Gal(a1-4)]Gal(b1-4)GlcNAc
# In short: as §1
# [8] = biological target: Gal(a1-4)Gal(b1-3)GlcNAc(b1-2)Man(a1-3)[Gal(a1-4)Gal(b1-3)GlcNAc(b1-2)Man(a1-6)]Man(b1-4)GlcNAc(b1-4)GlcNAc
# In short: as §1
# Gal(a1-4)Gal(b1-4)Glc = biological target: Gal(a1-4)Gal(b1-4)Glc
# In short: as §1
# Gal(a1-4)Gal(b1-4)GlcNAc = biological target: Gal(a1-4)Gal(b1-4)GlcNAc
# In short: as §1
# [9] = biological target: Gal(a1-4)Gal(b1-4)GlcNAc(b1-2)Man(a1-3)[Gal(a1-4)Gal(b1-4)GlcNAc(b1-2)Man(a1-6)]Man(b1-4)GlcNAc(b1-4)GlcNAc
# In short: as §1
# [10] = biological target: Gal(a1-4)Gal(b1-4)GlcNAc(b1-3)Gal(b1-4)Glc
# In short: as §1
# Gal(a1-4)GlcNAc = biological target: Gal(a1-4)GlcNAc
# In short: as §1
# Gal(a1-6)Glc = biological target: Gal(a1-6)Glc
# In short: as §1
# Gal(b1-2)Gal = biological target: Gal(b1-2)Gal
# In short: as §1
# Gal(b1-3)Gal = biological target: Gal(b1-3)Gal
# In short: as §1
# Gal(b1-3)Gal(b1-4)GlcNAc = biological target: Gal(b1-3)Gal(b1-4)GlcNAc
# In short: as §1
# Gal(b1-3)GalNAc = biological target: Gal(b1-3)GalNAc
# In short: as §1
# [11] = biological target: Gal(b1-3)GalNAc(a1-3)[Fuc(a1-2)]Gal(b1-4)Glc
# In short: as §1
# [12] = biological target: Gal(b1-3)GalNAc(a1-3)[Fuc(a1-2)]Gal(b1-4)GlcNAc
# In short: as §1
# Gal(b1-3)GalNAc(b1-3)Gal = biological target: Gal(b1-3)GalNAc(b1-3)Gal
# In short: as §1
# [13] = biological target: Gal(b1-3)GalNAc(b1-3)Gal(a1-4)Gal(b1-4)Glc
# In short: as §1
# [14] = biological target: Gal(b1-3)GalNAc(b1-4)Gal(b1-4)Glc
# In short: as §1
# [15] = biological target: Gal(b1-3)GalNAc(b1-4)[Neu5Ac(a2-3)]Gal(b1-4)Glc
# In short: as §1
# Gal(b1-3)GlcNAc = biological target: Gal(b1-3)GlcNAc
# In short: as §1
# [16] = biological target: Gal(b1-3)GlcNAc(a1-3)Gal(b1-4)GlcNAc
# In short: as §1
# [17] = biological target: Gal(b1-3)GlcNAc(a1-6)Gal(b1-4)GlcNAc
# In short: as §1
# Gal(b1-3)GlcNAc(b1-2)Man = biological target: Gal(b1-3)GlcNAc(b1-2)Man
# In short: as §1
# [18] = biological target: Gal(b1-3)GlcNAc(b1-2)Man(a1-3)[Gal(b1-3)GlcNAc(b1-2)Man(a1-6)]Man(b1-4)GlcNAc(b1-4)GlcNAc
# In short: as §1
# [19] = biological target: Gal(b1-3)GlcNAc(b1-2)Man(a1-3)[Gal(b1-3)GlcNAc(b1-2)Man(a1-6)]Man(b1-4)GlcNAc(b1-4)[Fuc(a1-6)]GlcNAc
# In short: as §1
# [20] = biological target: Gal(b1-3)GlcNAc(b1-2)Man(a1-3)[GlcNAc(b1-4)][Gal(b1-3)GlcNAc(b1-2)Man(a1-6)]Man(b1-4)GlcNAc(b1-4)GlcNAc
# In short: as §1
# [21] = biological target: Gal(b1-3)GlcNAc(b1-2)[Gal(b1-3)GlcNAc(b1-6)]Man(a1-6)[Gal(b1-3)GlcNAc(b1-2)Man(a1-3)]Man(b1-4)GlcNAc(b1-4)GlcNAc
# In short: as §1
# [22] = biological target: Gal(b1-3)GlcNAc(b1-3)Gal(b1-3)GlcNAc
# In short: as §1
# [23] = biological target: Gal(b1-3)GlcNAc(b1-3)Gal(b1-4)Glc
# In short: as §1
# [24] = biological target: Gal(b1-3)GlcNAc(b1-3)Gal(b1-4)GlcNAc
# In short: as §1
# [25] = biological target: Gal(b1-3)GlcNAc(b1-3)Gal(b1-4)GlcNAc(b1-2)Man(a1-3)[Gal(b1-3)GlcNAc(b1-3)Gal(b1-4)GlcNAc(b1-2)Man(a1-6)]Man(b1-4)GlcNAc(b1-4)GlcNAc
# In short: as §1
binder,measurement,setting,value
B1,glycan array binding signal (z-score),[1],-0.414
same,glycan array binding signal (z-score),[2],0.709
same,glycan array binding signal (z-score),[3],-0.732
same,glycan array binding signal (z-score),[4],0.055
same,glycan array binding signal (z-score),[5],-0.425
same,glycan array binding signal (z-score),[6],-0.56
same,glycan array binding signal (z-score),Gal(a1-3)GalNAc,-0.214
same,glycan array binding signal (z-score),[7],1.28
same,glycan array binding signal (z-score),[8],-0.247
same,glycan array binding signal (z-score),Gal(a1-4)Gal(b1-4)Glc,0.739
same,glycan array binding signal (z-score),Gal(a1-4)Gal(b1-4)GlcNAc,0.261
same,glycan array binding signal (z-score),[9],0.55
same,glycan array binding signal (z-score),[10],-0.507
same,glycan array binding signal (z-score),Gal(a1-4)GlcNAc,0.096
same,glycan array binding signal (z-score),Gal(a1-6)Glc,0.432
same,glycan array binding signal (z-score),Gal(b1-2)Gal,0.055
same,glycan array binding signal (z-score),Gal(b1-3)Gal,0.251
same,glycan array binding signal (z-score),Gal(b1-3)Gal(b1-4)GlcNAc,-0.593
same,glycan array binding signal (z-score),Gal(b1-3)GalNAc,-0.057
same,glycan array binding signal (z-score),[11],-0.521
same,glycan array binding signal (z-score),[12],-0.695
same,glycan array binding signal (z-score),Gal(b1-3)GalNAc(b1-3)Gal,-0.698
same,glycan array binding signal (z-score),[13],-0.489
same,glycan array binding signal (z-score),[14],-0.149
same,glycan array binding signal (z-score),[15],-0.5
same,glycan array binding signal (z-score),Gal(b1-3)GlcNAc,0.061
same,glycan array binding signal (z-score),[16],0.217
same,glycan array binding signal (z-score),[17],-0.414
same,glycan array binding signal (z-score),Gal(b1-3)GlcNAc(b1-2)Man,2.76
same,glycan array binding signal (z-score),[18],0.261
same,glycan array binding signal (z-score),[19],-0.152
same,glycan array binding signal (z-score),[20],-0.153
same,glycan array binding signal (z-score),[21],-0.325
same,glycan array binding signal (z-score),[22],0.024
same,glycan array binding signal (z-score),[23],-0.437
same,glycan array binding signal (z-score),[24],0.03
same,glycan array binding signal (z-score),[25],0.086
